Assay results taken from the supplement of paper PMC8728848.
The list shows a part of the results.

What was measured:
Test in all cases: glycan array binding signal (z-score within array); higher = stronger binding
Settings in all cases: glycan notation: IUPAC condensed, linker removed
[1] = target: GlcNAc(b1-3)Gal(b1-4)GlcNAc(b1-3)Gal(b1-4)GlcNAc(b1-3)GalNAc
In short: (§1)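 Glycan array data came from 3228 arrays in the Consortium for Functional Glycomics database, and only arrays with an available protein sequence were kept. Glycan names were put into IUPAC-condensed notation, and columns mapping to the same glycan were averaged. The binding signal is a within-array Z-score, averaged across arrays of one protein sequence run at different concentrations or buffers and across linkers. A negative Z-score can be read as non-binding.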

[2] = target: GlcNAc(b1-3)Gal(b1-4)GlcNAc(b1-3)GalNAc
In short: as §1

[3] = target: GlcNAc(b1-3)Gal(b1-4)GlcNAc(b1-3)[GlcNAc(b1-3)Gal(b1-4)GlcNAc(b1-3)]GalNAc
In short: as §1

[4] = target: GlcNAc(b1-3)Gal(b1-4)GlcNAc(b1-6)[Gal(b1-3)]GalNAc
In short: as §1

[5] = target: GlcNAc(b1-3)Gal(b1-4)GlcNAc(b1-6)[GlcNAc(b1-3)Gal(b1-3)]GalNAc
In short: as §1

[6] = target: GlcNAc(b1-3)Gal(b1-4)GlcNAc(b1-6)[GlcNAc(b1-3)]Gal(b1-4)GlcNAc
In short: as §1

[7] = target: GlcNAc(b1-3)GalNAc
In short: as §1

[8] = target: GlcNAc(b1-3)Man
In short: as §1

[9] = target: GlcNAc(b1-3)[GlcNAc(b1-4)][GlcNAc(b1-6)]GlcNAc
In short: as §1

[10] = target: GlcNAc(b1-3)[GlcNAc(b1-6)]Gal(b1-4)GlcNAc
In short: as §1

[11] = target: GlcNAc(b1-3)[GlcNAc(b1-6)]GalNAc
In short: as §1

[12] = target: GlcNAc(b1-4)Gal(b1-4)GlcNAc
In short: as §1

[13] = target: GlcNAc(b1-4)GlcNAc
In short: as §1

[14] = target: GlcNAc(b1-4)GlcNAc(b1-4)GlcNAc
In short: as §1

[15] = target: GlcNAc(b1-4)GlcNAc(b1-4)GlcNAc(b1-4)GlcNAc(b1-4)GlcNAc
In short: as §1

[16] = target: GlcNAc(b1-4)GlcNAc(b1-4)GlcNAc(b1-4)GlcNAc(b1-4)GlcNAc(b1-4)GlcNAc
In short: as §1

[17] = target: GlcNAc(b1-4)[GlcNAc(b1-6)]GalNAc
In short: as §1

[18] = target: GlcNAc(b1-6)Gal(b1-4)GlcNAc
In short: as §1

[19] = target: GlcNAc(b1-6)GalNAc
In short: as §1

[20] = target: GlcNAc6S(b1-3)Gal(b1-4)GlcNAc
In short: as §1

[21] = target: Kdn(a2-3)Gal(b1-3)GalNAc
In short: as §1

[22] = target: Kdn(a2-3)Gal(b1-3)GlcNAc
In short: as §1

[23] = target: Kdn(a2-3)Gal(b1-4)Glc
In short: as §1

[24] = target: Kdn(a2-3)Gal(b1-4)GlcNAc
In short: as §1

[25] = target: Kdn(a2-3)Gal(b1-4)[Fuc(a1-3)]GlcNAc
In short: as §1

[26] = target: Kdn(a2-6)Gal(b1-4)GlcNAc
In short: as §1

[27] = target: Man(a1-2)Man(a1-2)Man(a1-3)Man
In short: as §1

[28] = target: Man(a1-2)Man(a1-2)Man(a1-6)[Man(a1-3)]Man
In short: as §1

[29] = target: Man(a1-2)Man(a1-3)Man
In short: as §1

[30] = target: Man(a1-2)Man(a1-3)[Man(a1-2)Man(a1-6)]Man
In short: as §1

[31] = target: Man(a1-2)Man(a1-3)[Man(a1-2)Man(a1-6)]Man(a1-6)[Man(a1-2)Man(a1-2)Man(a1-3)]Man
In short: as §1

[32] = target: Man(a1-2)Man(a1-3)[Man(a1-2)Man(a1-6)]Man(a1-6)[Man(a1-2)Man(a1-2)Man(a1-3)]Man(b1-4)GlcNAc(b1-4)GlcNAc
In short: as §1

[33] = target: Man(a1-2)Man(a1-3)[Man(a1-6)]Man(a1-6)[Man(a1-2)Man(a1-3)]Man(b1-4)GlcNAc(b1-4)GlcNAc
In short: as §1

[34] = target: Man(a1-2)Man(a1-6)[Man(a1-3)]Man(a1-6)[Man(a1-2)Man(a1-2)Man(a1-3)]Man
In short: as §1

[35] = target: Man(a1-2)Man(a1-6)[Man(a1-3)]Man(a1-6)[Man(a1-2)Man(a1-2)Man(a1-3)]Man(b1-4)GlcNAc(b1-4)GlcNAc
In short: as §1

[36] = target: Man(a1-3)[Man(a1-6)]Man
In short: as §1

[37] = target: Man(a1-3)[Man(a1-6)]Man(a1-6)[Man(a1-2)Man(a1-3)]Man(b1-4)GlcNAc(b1-4)GlcNAc
In short: as §1

B1: PX14375l-pdi-526-25-526 (Parabacteroides distasonis) (protein)
chain: DEEPKSTLTDVAYYKTQSQMESNVNYLYRTGAIGSYVDFGSAYIGPFASIQEELTGYFSNSYEGQEIVCRYTRELTRQQNTMQLASKMDKVWDDCYRGINVANGAIKHMPEVPMDQATADRLTAEAKFFRAFNYFYLVKTFGAVPFYTDPYELAENMELPRTETSTIYNQIESDLKDAMNVLPEATFAANGHRITKYVAAMTLTDVYMYQHKYAEAAETVRIVVNSNHKLTTNDDLAMNSAFNKLRSTDDLDEAIYAYEYDNQISPSNWLPTYAFDGDASSNGLFGTYAITQKVHGPNDRYLNIYESNDLRRQPNQFYHWTYTNPKTGKVWNSVGNAACCWYYYDEDALLTTGRGTKDWNVYRYAEALLDAAESIAQSTGVTAEAAGYLAQVKARANMEGKTAAEIASSLQSMGKQAFIEECWTERLRELPLEFKMWDMCVRTGMFPNISETTPGQVTYIPLVGAKNASGATIKESDLLWPLSVNEIQRNPSLTQNEGYSAK
In the case of B1, the “glycan array binding signal (z-score)” value [1] is reported as -0.081, the “glycan array binding signal (z-score)” value [2] is reported as -0.332 and the “glycan array binding signal (z-score)” value [3] is reported as -0.189. The “glycan array binding signal (z-score)” value [4] was -0.344, the “glycan array binding signal (z-score)” value [5] was -0.282 and the “glycan array binding signal (z-score)” value [6] was -0.209. For the same binder, the “glycan array binding signal (z-score)” value [7] was -0.354, the “glycan array binding signal (z-score)” value [8] was -0.338 and the “glycan array binding signal (z-score)” value [9] was -0.141. The “glycan array binding signal (z-score)” value [10] was -0.345, the “glycan array binding signal (z-score)” value [11] was -0.1 and the “glycan array binding signal (z-score)” value [12] was -0.049. For the same binder, the “glycan array binding signal (z-score)” value [13] was -0.176, the “glycan array binding signal (z-score)” value [14] was -0.432 and the “glycan array binding signal (z-score)” value [15] was -0.095. The “glycan array binding signal (z-score)” value [16] was -0.298, the “glycan array binding signal (z-score)” value [17] was -0.36 and the “glycan array binding signal (z-score)” value [18] was -0.373. For the same binder, the “glycan array binding signal (z-score)” value [19] was -0.307, the “glycan array binding signal (z-score)” value [20] was 0.044 and the “glycan array binding signal (z-score)” value [21] was -0.227. The “glycan array binding signal (z-score)” value [22] was -0.366, the “glycan array binding signal (z-score)” value [23] was 0.066 and the “glycan array binding signal (z-score)” value [24] was -0.11. For the same binder, the “glycan array binding signal (z-score)” value [25] was -0.415, the “glycan array binding signal (z-score)” value [26] was -0.31 and the “glycan array binding signal (z-score)” value [27] was -0.307. The “glycan array binding signal (z-score)” value [28] was -0.337, the “glycan array binding signal (z-score)” value [29] was -0.453 and the “glycan array binding signal (z-score)” value [30] was -0.022. For the same binder, the “glycan array binding signal (z-score)” value [31] was 0.029, the “glycan array binding signal (z-score)” value [32] was -0.138 and the “glycan array binding signal (z-score)” value [33] was -0.236. For the same binder, the “glycan array binding signal (z-score)” value [34] was -0.308, the “glycan array binding signal (z-score)” value [35] was -0.378 and the “glycan array binding signal (z-score)” value [36] was -0.327. For the same binder, the “glycan array binding signal (z-score)” value [37] was -0.44.
